{"source": "PubChem BioAssay AID1347055", "about": "(National Center for Advancing Translational Sciences (NCATS), 2019)", "note": "About 120 (0.22%) of roughly 54,000 compounds were called active. This list was built around the results that the source calls inconclusive (neither active nor inactive); the mix of calls is not that of the screen. Calls follow the shape of the dose curve; as a rule, active = well fitted inhibition curve with a large enough effect; inconclusive = small, poorly fitted or top-dose-only effect, or effect the other way; inactive = flat fitted curve, though single readings scatter. No potency is given beside an inconclusive call; the fits are too rough. Potency is read from the fitted curve at half-maximal effect; tags tell the direction and shape of the fitted curve.", "data": [{"biological_target": "Fumarate hydratase, mitochondrial (Homo sapiens) (UniProt P07954)", "sequence (P07954 whole entry, looked up)": "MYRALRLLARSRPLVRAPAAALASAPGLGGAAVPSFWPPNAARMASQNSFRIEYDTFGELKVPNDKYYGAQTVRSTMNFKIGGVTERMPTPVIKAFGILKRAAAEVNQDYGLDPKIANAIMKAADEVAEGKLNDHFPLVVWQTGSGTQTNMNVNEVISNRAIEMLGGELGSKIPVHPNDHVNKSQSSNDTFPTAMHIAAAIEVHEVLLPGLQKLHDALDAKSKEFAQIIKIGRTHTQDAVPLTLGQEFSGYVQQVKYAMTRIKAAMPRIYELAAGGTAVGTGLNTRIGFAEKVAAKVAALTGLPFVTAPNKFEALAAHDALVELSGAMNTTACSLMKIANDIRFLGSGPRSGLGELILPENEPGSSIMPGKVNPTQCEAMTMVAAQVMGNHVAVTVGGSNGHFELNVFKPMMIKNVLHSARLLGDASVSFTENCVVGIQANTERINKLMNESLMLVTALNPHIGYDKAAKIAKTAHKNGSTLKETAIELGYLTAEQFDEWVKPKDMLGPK", "test": "Identification of activators of human fumarate hydratase by quantitative high-throughput screening; also: the screen sought activators but most active calls are inhibition curves; nearly all actives have a fitted effect of over 45% in size", "details": "FH coupled MDH/diaphorase resazurin fluorescence, 15 min; series mostly up to 79.9 µM", "values": [{"smiles": "COc1ccc(NC(=O)CSc2cn(CC(=O)N3CCCCC3)c3ccccc23)c(OC)c1", "Potency": "inconclusive [inhibitor, single point]"}, {"smiles": "CCOc1ccc(CNC(=O)c2ccc(Sc3ccc(Cl)cc3)c(NC(C)=O)c2)cc1", "Potency": "inconclusive [inhibitor, single point]"}, {"smiles": "CCCCC1CCC(C(=O)N2CC(=O)Nc3ccc(F)cc3C2c2ccc(F)cc2)CC1", "note": "(stereo unspecified)", "Potency": "inconclusive [inhibitor, partial curve]"}, {"smiles": "CCOc1ccc(NC(=O)c2cc3sc(Cl)cc3n2CC)cc1", "Potency": "inactive"}, {"smiles": "CCCOc1ccccc1-c1nc(SCC(=O)c2ccccc2)n[nH]1", "Potency": "inconclusive [inhibitor, partial curve]"}, {"smiles": "Cc1ccc(-c2cc(NC(=O)c3ccccc3Cl)on2)cc1", "Potency": "inactive"}, {"smiles": "c1ccc2[nH]c(-c3cscn3)nc2c1", "Potency": "inactive"}, {"smiles": "CNC(=O)O[C@H]1COc2ccc(N3CCN(C4COC4)CC3)cc2[C@@H]1NC(=O)c1ccc(F)cc1", "Potency": "inactive"}, {"smiles": "CC1(C)Oc2ncnc(N)c2N=C1c1ccc(C23CCC(CC(=O)O)(CC2)CC3)cc1", "Potency": "inconclusive [inhibitor, partial curve, poor fit]"}, {"smiles": "Cc1cccc(NC(=O)CN(c2ccc(C(C)C)cc2)S(=O)(=O)c2c(C)nn(C)c2C)c1C", "Potency": "inconclusive [inhibitor, single point]"}, {"smiles": "Cc1ccc(-n2ncc3c(N4CCN(c5ccccc5)CC4)ncnc32)cc1C", "Potency": "inactive"}, {"smiles": "COc1ccc(CNC(=O)c2cc3c(-c4ccc(Cl)cc4)nn(C)c3s2)cc1", "Potency": "inconclusive [inhibitor, partial curve, poor fit]"}, {"smiles": "COc1ccc(C(=O)NCCn2cc(SCc3cccc(F)c3)c3ccccc32)cc1OC", "Potency": "inconclusive [inhibitor, partial curve, poor fit]"}, {"smiles": "COc1ccc(C(=O)NCC(c2ccc(Cl)cc2)N2CCCCC2)cc1", "note": "(stereo unspecified)", "Potency": "inconclusive [inhibitor, single point]"}, {"smiles": "CCC(Sc1nnc2c3ccccc3n(CC)c2n1)C(=O)Nc1ccc(NC(C)=O)cc1", "note": "(stereo unspecified)", "Potency": "inconclusive [inhibitor, single point]"}, {"smiles": "Cc1cc2[nH]c(=O)c(=O)[nH]c2cc1S(=O)(=O)N1CCN(c2ccccc2)CC1", "Potency": "inconclusive [inhibitor, partial curve]"}, {"smiles": "COC(=O)c1ccc(NC(=O)n2ncc3c(C)cccc32)cc1", "Potency": "inactive"}, {"smiles": "CC1=C(c2ccc(C(C)C)cc2)S(=O)(=O)N=C1N1CCC(C(=O)Nc2ccc(C)cc2)CC1", "Potency": "inactive"}, {"smiles": "Cc1ccc(-c2nc3cccc(C)n3c2Nc2ccc3c(c2)OCCO3)cc1", "Potency": "inconclusive [inhibitor, partial curve, poor fit]"}, {"smiles": "CCc1nn(CC(=O)NCc2ccccc2)c(=O)c2cccn12", "Potency": "inactive"}, {"smiles": "CC(C)c1cc2c(c(O)c1O)[C@@]13CCCC(C)(C)[C@@H]1[C@H](OC3=O)C2=O", "Potency": "inconclusive [inhibitor, single point]"}, {"smiles": "Cc1cc(C)n2nc(CNS(=O)(=O)c3cccc(Cl)c3)nc2n1", "Potency": "inconclusive [inhibitor, partial curve, poor fit]"}, {"smiles": "CC(C)C1=CC2C(CC[C@]2(C)O)[C@](C)(O)CC1", "note": "(stereo partly specified)", "Potency": "inactive"}, {"smiles": "C=C1CCC2C(C)(C(=O)O)CCCC2(C)C1CC/C(=C\\CO)CO", "note": "(stereo unspecified)", "Potency": "inactive"}, {"smiles": "O=C(Nc1cccc(C(=O)OCc2cc(=O)n3c4c(sc3n2)CCCC4)c1)c1cccc(F)c1", "Potency": "inconclusive [inhibitor, single point]"}, {"smiles": "COc1ccc(NC(=O)CCS(=O)(=O)c2nc(-c3ccc4c(c3)OCO4)cc(C(F)(F)F)n2)cc1OC", "Potency": "inconclusive [inhibitor, partial curve, poor fit]"}, {"smiles": "CCOC(=O)c1ccc(N2C(=O)c3[nH]nc(-c4ccc(OC)cc4)c3C2c2cccc(O)c2)cc1", "note": "(stereo unspecified)", "Potency": "inconclusive [inhibitor, single point]"}, {"smiles": "Cc1ccc(-c2cn3c(n2)sc2cc(C(=O)NCCCN4CCCCC4)ccc23)cc1", "Potency": "inactive"}, {"smiles": "C=Cc1ccc(Cn2c(C(=O)O)c(CNCc3cccs3)c3ccc(C)cc32)cc1", "Potency": "inconclusive [inhibitor, single point]"}, {"smiles": "O=C(CCSCc1cnn(-c2ccccc2)c1-n1cccc1)NCc1ccccc1F", "Potency": "inconclusive [inhibitor, partial curve, poor fit]"}, {"smiles": "CC(=O)c1ccc(NS(=O)(=O)c2cc(-c3cnc(C4CC4)o3)ccc2C)cc1", "Potency": "inactive"}, {"smiles": "CCc1ccc(OCCCSc2nc(-c3ccc(C(C)(C)C)cc3)nc3cc(=O)[nH]n23)cc1", "Potency": "inconclusive [inhibitor, partial curve]"}, {"smiles": "Oc1ccc2c(c1)OCC1(O)Cc3cc(O)c(O)cc3C21", "note": "(stereo unspecified)", "Potency": "inconclusive [activator, single point]"}, {"smiles": "CCCCN1CC(c2nc3ccccc3n2CCCCOc2ccc(C)cc2C)CC1=O", "note": "(stereo unspecified)", "Potency": "inconclusive [inhibitor, single point]"}, {"smiles": "COc1nc(-c2ccc(C)cc2)ccc1-c1noc(-c2ccccc2Br)n1", "Potency": "inconclusive [inhibitor, single point]"}, {"smiles": "CCCCCCCC/C=C\\CCCCCCCC(=O)NCCc1ccc(O)c(O)c1", "Potency": "inconclusive [inhibitor, single point]"}, {"smiles": "COc1ccccc1CNC(=O)c1cccc(N2CCCS2(=O)=O)c1", "Potency": "inactive"}, {"smiles": "CCOC(=O)c1cnc2c(C)c(Cl)ccc2c1NCCc1ccc(OC)c(OC)c1", "Potency": "inconclusive [inhibitor, single point]"}, {"smiles": "CNc1nc(NCc2ccc(NS(C)(=O)=O)cc2Cl)cc(-c2ccccn2)n1", "Potency": "inconclusive [activator, partial curve]"}, {"smiles": "CCCCCCCCc1ccc(CCC(N)(CO)CO)cc1", "Potency": "inactive"}, {"smiles": "COc1ccccc1NC(=O)CSc1nnc(-c2ccccc2C)o1", "Potency": "inactive"}, {"smiles": "CC1=C(C(=O)OCc2ccc(C)cc2)C(c2ccccc2F)CC(=O)N1", "note": "(stereo unspecified)", "Potency": "inactive"}, {"smiles": "CCOC(=O)c1ccc(N2C(=O)c3[nH]nc(-c4ccc(C)cc4)c3C2c2ccc(O)c(OCC)c2)cc1", "note": "(stereo unspecified)", "Potency": "inconclusive [inhibitor, partial curve, poor fit]"}, {"smiles": "COc1ccccc1N1CCN(C(=O)Cn2c(=O)n3nc(-c4ccc(C)cc4)nc3c3ccccc32)CC1", "Potency": "inactive"}, {"smiles": "O=S(=O)(/N=C/c1c(O)ccc2ccccc12)c1cccs1", "Potency": "active: 15.8 µM"}, {"smiles": "CCCCCCCCCCCCCC[N+](C)(C)Cc1ccccc1", "Potency": "inactive"}, {"smiles": "CCOc1ccccc1CNC(=O)c1oc2ccc3c(c2c1C)C(=O)CC(C)(C)O3", "Potency": "inconclusive [inhibitor, single point]"}, {"smiles": "Cc1ccc(Cl)cc1N1CCN(C(=O)CCS(=O)(=O)c2ccc3c(c2)oc(=O)n3C)CC1", "Potency": "inactive"}, {"smiles": "CCOc1ccccc1Oc1nc(C)nc2c1oc1ccccc12", "Potency": "inconclusive [inhibitor, partial curve, poor fit]"}, {"smiles": "O=C1C2C=CC=CC2=NC(=S)N1CCN1CCC(=C(c2ccc(F)cc2)c2ccc(F)cc2)CC1", "note": "(stereo unspecified)", "Potency": "inconclusive [inhibitor, single point]"}, {"smiles": "COc1ccc(-c2nc(Cn3c(SCc4ccccc4F)nc4cccnc43)c(C)o2)cc1", "Potency": "inconclusive [inhibitor, partial curve]"}, {"smiles": "O=C(CN1C(=O)CCc2cc(S(=O)(=O)N3CCCCC3)ccc21)NCc1ccc(Cl)cc1", "Potency": "inconclusive [inhibitor, partial curve]"}, {"smiles": "CCc1ccc(NC(=O)CSc2ncc(S(=O)(=O)c3cc(C)ccc3C)c(=O)[nH]2)cc1", "Potency": "inconclusive [inhibitor, partial curve, poor fit]"}, {"smiles": "N#C/C(=C\\c1cc(Br)c(O)c(Br)c1)c1nc2ccccc2c(=O)[nH]1", "Potency": "inconclusive [activator, single point]"}, {"smiles": "CC(=O)Nc1ccc(NC(=O)c2cc(-c3ccc4c(c3)OCCO4)on2)cc1", "Potency": "inactive"}, {"smiles": "CCn1c(-c2nonc2N)nc2c(C#CCO)ncc(OCCCN)c21", "Potency": "inactive"}, {"smiles": "CC1Oc2cc(cnc2N)-c2c(nn(C)c2C#N)CN(C)C(=O)c2ccc(F)cc21", "note": "(stereo unspecified)", "Potency": "inactive"}, {"smiles": "COc1ccc2c(CNCCc3cccs3)c(C(=O)O)n(Cc3cccc(F)c3)c2c1", "Potency": "inconclusive [inhibitor, partial curve, poor fit]"}, {"smiles": "COc1ccc(OC)c(NC(=O)CN2CCCN(Cc3ccccc3Cl)S2(=O)=O)c1", "Potency": "inconclusive [inhibitor, partial curve]"}, {"smiles": "Cc1ccc(-n2ncc3c(NC4CCCCC4)ncnc32)cc1Cl", "Potency": "inactive"}, {"smiles": "COc1ccccc1NC(=O)c1cn(-c2ccccc2)nc1-c1ccccc1", "Potency": "inconclusive [inhibitor, partial curve, poor fit]"}, {"smiles": "COc1ccccc1CNC(=O)CCn1cnc2ccccc2c1=O", "Potency": "inconclusive [inhibitor, partial curve, poor fit]"}, {"smiles": "C/C=C1\\[C@H](O[C@@H]2O[C@H](CO)[C@@H](O)[C@H](O)[C@H]2O)OC=C2C(=O)OCCc3ccc(O)c(c3)Oc3ccc(cc3)CCOC(=O)C[C@H]21", "Potency": "inactive"}, {"smiles": "CCOC(=O)CSc1nnc2n(-c3ccccc3)c(=O)c3c4c(sc3n12)CC(C(C)(C)C)CC4", "note": "(stereo unspecified)", "Potency": "inconclusive [inhibitor, single point]"}, {"smiles": "CCCCCSc1nc2sc3c(c2c(=O)n1-c1ccc(OC)cc1)CCN(C(C)=O)C3", "Potency": "inconclusive [inhibitor, single point]"}, {"smiles": "O=S(=O)(Nc1cccc(C(F)(F)F)c1)c1ccc(-c2cnc(C3CC3)o2)cc1", "Potency": "inconclusive [inhibitor, single point]"}]}]}
